{
  "source": "PubChem BioAssay AID686970",
  "about": "(National Center for Advancing Translational Sciences (NCATS), 2013)",
  "note": "The campaign covered roughly 360,000 compounds. About 6,000 (1.7%) were called active. The inconclusive results got no clear call from the source; some entries with a clear call stand among them for comparison. The call rests on the fitted dose curve; in most records, active means well fitted cell-killing curve with a large enough effect; inconclusive means small, poorly fitted or top-dose-only effect, or effect the other way; inactive means flat fitted curve, though single readings scatter. Potencies of inconclusive entries are left out as doubtful fits. Potency means the concentration at half of the fitted maximal effect; tags describe the fitted curve by direction and shape.",
  "data": [
    {"assay": "qHTS for induction of synthetic lethality in tumor cells producing 2HG: qHTS for the HT-1080-NT fibrosarcoma cell line;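 further: NT is the 2HG producing partner of a matched IDH1 knockdown line; nearly all actives have a fitted effect of over 55% in size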;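 on activity, negative = less viability: 0% = DMSO-treated cells and -100% = media-only wells without cells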", "conditions": "HT-1080-NT fibrosarcoma viability, CellTiter-Glo ATP luminescence, 48 h; activity, negative = less viability: at 46.1 µM (top of the series) unless noted", "outline": "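Toxicity toward the 2HG-producing NT line was scored as %Activity, normalised to DMSO and no-cell wells, from CellTiter-Glo luminescence after 48 hours' treatment.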", "values": [
      {"smiles": "C/C(=N\\NC(=O)c1cccc(Cl)c1)C1C(=O)c2ccccc2C1=O", "Potency": "active: 13 µM"},
      {"smiles": "Cc1ccc(C)c(NS(=O)(=O)c2ccc(-c3cnc(C4CC4)o3)cc2)c1", "Potency": "active: 0.103 µM"},
      {"smiles": "Cc1ccc(C2NC(=O)c3ccccc3N2)c(C)c1", "note": "(stereo not given)", "Potency": "active: 7.31 µM"},
      {"smiles": "OC(c1ccccc1)c1nc(-c2ccc(F)c(Cl)c2)cs1", "note": "(stereo not given)", "Potency": "inconclusive [cytotoxic, single point]"},
      {"smiles": "CC(C)[C@H](NC(=O)N1CC(=O)Nc2ccccc21)C(=O)N[C@@H](C(=O)O)c1ccccc1", "Potency": "inactive"},
      {"smiles": "CCC(C)NCCOCCOc1ccc(Cl)c2ccccc12", "note": "(stereo not given)", "Potency": "active: 16.4 µM"},
      {"smiles": "CN1CCN(c2nc(-c3cccs3)nc3ccccc23)CC1", "Potency": "inconclusive [cytotoxic, single point]"},
      {"smiles": "O=C1C=CC(=C(c2ccc(O)cc2)c2ccc(O)cc2)C=C1", "Potency": "active: 9.2 µM"},
      {"smiles": "OC(c1ccc(F)c(F)c1)c1nc(-c2csc3ccccc23)cs1", "note": "(stereo not given)", "Potency": "inconclusive [cytotoxic, single point]"},
      {"smiles": "CN(C)/C=C/C(=O)c1ccc2noc(-c3cccc(F)c3)c2c1", "Potency": "inactive"},
      {"smiles": "Cc1ccc(S(=O)(=O)CCC(=O)Nc2sccc2C#N)cc1", "Potency": "inactive"},
      {"smiles": "Cn1c(N2CCOCC2)c(/C=N/OC(=O)c2ccc(F)cc2)c2ccccc21", "Potency": "active: 2.82 µM"},
      {"smiles": "CCSc1ccccc1C(=O)n1nnc2ccccc21", "Potency": "inconclusive [cytotoxic, single point]"},
      {"smiles": "Cc1ccc(S(=O)(=O)Oc2ccccc2/C=C2\\SC(=O)NC2=O)cc1", "Potency": "active: 20.6 µM"},
      {"smiles": "CN(C)CCN(C)Cc1ccccc1Sc1cccc2ccccc12", "Potency": "inconclusive [cytotoxic, single point]"},
      {"smiles": "COc1ccc(/C=C/C(=O)c2c(C)cc(C)[nH]c2=O)c2ccccc12", "Potency": "inconclusive [cytotoxic, partial curve]"},
      {"smiles": "CCc1ccc(NC(=O)C2CCCN(S(=O)(=O)c3cccnc3)C2)cc1", "note": "(stereo not given)", "Potency": "inconclusive [cytotoxic, single point]"},
      {"smiles": "COc1ccc(NC(=O)Cn2nnc(-c3ccccc3F)n2)cc1", "Potency": "inactive"},
      {"smiles": "O=C(CN1C(=O)c2cccc3cccc(c23)C1=O)N1CCN(Cc2ccc3c(c2)OCO3)CC1", "Potency": "inactive"},
      {"smiles": "CC(C)OCCCNC(=O)CCSc1ccc(Cl)cc1", "Potency": "inactive"},
      {"smiles": "O=C(CNC(=O)c1ccccc1)c1ccccc1", "Potency": "inconclusive [rising, single point]"},
      {"smiles": "O=C(Nc1ccc(F)cc1F)C1CCN(c2ncnc3c2sc2cccc(F)c23)CC1", "Potency": "inactive"},
      {"smiles": "CCCC(C(=O)NC1CCCC1)N(C(=O)Cn1nnc(-c2ccc(C)o2)n1)C1CCCC1", "note": "(stereo not given)", "Potency": "inactive"},
      {"smiles": "COC(=O)c1c(NC(=O)c2ccc([N+](=O)[O-])o2)sc2c1CCN(C(C)C)C2", "Potency": "active: 20.6 µM"},
      {"smiles": "N#Cc1ccccc1CCN1C(=O)c2ccccc2C1=O", "Potency": "inactive"},
      {"smiles": "OCC1OC(n2cnc3ncccc32)C(O)C1O", "note": "(stereo not given)", "Potency": "active: 20.6 µM"},
      {"smiles": "O=C(CCC(=O)Nc1cccc(Cl)c1)N/N=C/c1cc([N+](=O)[O-])ccc1O", "Potency": "inconclusive [cytotoxic, partial curve]"},
      {"smiles": "CCCCC(=O)N(C)c1c(CC)nc2c(OCc3ccc(Cl)cc3Cl)cccn12", "Potency": "inconclusive [cytotoxic, single point]"},
      {"smiles": "CCCCCCSc1cc(-c2nc3ccc(C)cn3c2NCc2ccccc2)ccc1OC", "Potency": "inconclusive [cytotoxic, single point]"},
      {"smiles": "CCc1cc(C(=O)N2CCN(c3ccccc3OC)CC2)sc1C", "Potency": "inconclusive [cytotoxic, partial curve]"},
      {"smiles": "COc1ccc(-c2onc(C)c2-c2ccccc2)c(O)c1", "Potency": "inconclusive [cytotoxic, partial curve]"},
      {"smiles": "Cc1cc(N2CCCCCC2)nc(-c2ccccc2O)n1", "Potency": "inactive"},
      {"smiles": "CC(C)c1ccc(CNc2cc(N3CCCC3)ccc2[N+](=O)[O-])cc1", "Potency": "inconclusive [cytotoxic, single point]"},
      {"smiles": "CCc1ccc(OCC(=O)NCC(c2ccc(Cl)cc2)N2CCCCC2)cc1", "note": "(stereo not given)", "Potency": "inconclusive [cytotoxic, single point]"},
      {"smiles": "CN(C)C(=O)c1ccc(SC(=S)NCc2ccccc2)cc1", "Potency": "inconclusive [cytotoxic, partial curve]"},
      {"smiles": "COc1ccc(-c2csc(N(CC(C)C)C(=O)c3ccco3)n2)cc1", "Potency": "inactive"},
      {"smiles": "N#C/C(=C1/CCCCCN1)c1nnc2n1CCCCC2", "Potency": "inconclusive [rising, single point]"},
      {"smiles": "CCOC(=O)c1ccc(N=c2sc(C(=O)OC)cc(=O)n2-c2ccc(C(=O)OCC)cc2)cc1", "Potency": "active: 16.4 µM"},
      {"smiles": "Cc1ccc(/C=N/NC(=O)c2cc(C)oc2C)cc1", "Potency": "inconclusive [cytotoxic, single point]"},
      {"smiles": "O=C([C@H]1O[C@@H](n2ccc(=O)[nH]c2=O)[C@H](O)[C@@H]1O)N1CCSC1", "Potency": "inconclusive [rising, partial curve]"},
      {"smiles": "O=C(NNC(=O)C1CCN(S(=O)(=O)c2ccccc2)CC1)c1ccccc1O", "Potency": "inconclusive [cytotoxic, partial curve]"},
      {"smiles": "Cc1cccc2c(N)c3c(nc12)N(C)CC3", "Potency": "inactive"},
      {"smiles": "COc1ccc(C(=O)/C=C/c2cn(CC(O)CN3CCOCC3)c3ccccc23)cc1", "note": "(stereo not given)", "Potency": "inconclusive [cytotoxic, partial curve]"},
      {"smiles": "CCCCCCCNC(=O)c1cc(-c2ccncc2)nc2ccccc12", "activity, negative = less viability": "inconclusive: 6.37%"},
      {"smiles": "COc1ccc(-c2csc(C(O)c3ccc(F)cc3)n2)cc1", "note": "(stereo not given)", "Potency": "inconclusive [cytotoxic, single point]"},
      {"smiles": "CCOC(=O)C1=C(C)NC(C)=C(C(=O)OCC)C1c1cn(-c2ccccc2)nc1-c1ccco1", "Potency": "inconclusive [cytotoxic, partial curve]"},
      {"smiles": "CCOC(=O)N1CCN(c2ccc(C(=O)CC)cc2F)CC1", "Potency": "inactive"},
      {"smiles": "CN(C)CCCNc1cc(C(C)(C)C)nc2c(-c3ccccc3)cnn12", "Potency": "active: 20.6 µM"},
      {"smiles": "Oc1ccc(NCc2ccc(OCc3ccccc3)cc2)cc1", "Potency": "active: 23.1 µM"},
      {"smiles": "CCCN(CCC)S(=O)(=O)c1ccc(C(=O)Nc2nnc(CSC)o2)cc1", "Potency": "inconclusive [cytotoxic, single point]"},
      {"smiles": "CCOc1ccccc1C1N=C(c2ccc(OC)cc2)CC(c2ccccc2O)N1", "note": "(stereo not given)", "Potency": "inconclusive [cytotoxic, single point]"},
      {"smiles": "Cc1ccc(S(=O)(=O)N2CCN=C2SC(C)c2ccccc2)cc1", "note": "(stereo not given)", "Potency": "inactive"},
      {"smiles": "O=C(Cn1nnc(-c2ccc(CN3CCOCC3)cc2)n1)Nc1nc(-c2ccccc2)cs1", "Potency": "inconclusive [cytotoxic, single point]"},
      {"smiles": "Cc1c(C2CC(=O)N(c3ccccc3)C2=O)[nH]n(-c2ccccc2)c1=O", "note": "(stereo not given)", "Potency": "inactive"},
      {"smiles": "COc1ccc(C(=O)NCCCNC(=O)c2cccnc2)cc1Br", "Potency": "inconclusive [cytotoxic, single point]"},
      {"smiles": "Cc1ccc(C(=O)NC2c3ccccc3-c3ccccc32)cc1", "Potency": "inconclusive [cytotoxic, partial curve]"},
      {"smiles": "COc1cc(/C=N/NC(=O)CNc2n[nH]c(=O)[nH]c2=O)ccc1OCc1ccccc1", "Potency": "inconclusive [rising, partial curve]"},
      {"smiles": "O=C1/C(=C\\c2cc(Cl)c(O)c(Cl)c2)SC(=S)N1Cc1ccccc1", "Potency": "inconclusive [cytotoxic, partial curve]"},
      {"smiles": "NC(=O)c1cccc(-c2coc3c(C(=O)NC4CCCCC4)cccc23)c1", "Potency": "inconclusive [cytotoxic, single point]"},
      {"smiles": "C/C(=N\\NC(=O)c1ccc(C)cc1)C1C(=O)c2ccccc2C1=O", "Potency": "inconclusive [cytotoxic, single point]"},
      {"smiles": "CCC(CC)NC(=O)Cc1ccc(S(=O)(=O)N2CCOCC2)s1", "Potency": "inconclusive [rising, single point]"},
      {"smiles": "CCC(NC(=S)NCc1ccc(F)cc1)c1ccc(C)cc1", "note": "(stereo not given)", "Potency": "inconclusive [cytotoxic, single point]"},
      {"smiles": "O=C1/C(=C/c2ccccc2)CCCc2ccccc21", "Potency": "inactive"},
      {"smiles": "Cc1ccccc1N1CCN(S(=O)(=O)c2ccc3ccccc3c2)CC1", "Potency": "inconclusive [cytotoxic, partial curve, poor fit]"},
      {"smiles": "CCN(CC)S(=O)(=O)c1cc(NC(=O)c2cc(-c3ccccn3)nc3ccccc23)ccc1C", "Potency": "inconclusive [cytotoxic, single point]"},
      {"smiles": "O=C(COc1ccc2ccccc2c1)NCCn1ccc2ccccc21", "Potency": "inactive"},
      {"smiles": "CCOC(=O)N1CCN(C(=O)Cn2nc(C)n3nc(-c4ccc(OC)cc4)cc3c2=O)CC1", "Potency": "inactive"},
      {"smiles": "Cc1ccccc1Nc1c(-c2ccccc2)nc2cccc(C)n12", "Potency": "inconclusive [cytotoxic, single point]"},
      {"smiles": "O=C1Nc2ccccc2CCC1Sc1nnc(-c2ccc(Cl)cc2)s1", "note": "(stereo not given)", "Potency": "inconclusive [rising, single point]"},
      {"smiles": "COc1ccc(/C=C/C(=O)OCC(=O)NC2CCS(=O)(=O)C2)cc1", "note": "(stereo not given)", "Potency": "inactive"},
      {"smiles": "CCOC(=O)N1CCC(NC(=O)C2CCCN(Cc3nc(-c4cccc(C)c4)oc3C)C2)CC1", "note": "(stereo not given)", "Potency": "inconclusive [cytotoxic, single point]"},
      {"smiles": "COc1cc2c(cc1OC)C(c1cccc([N+](=O)[O-])c1)N(C(=O)c1ccc(F)cc1)CC2", "note": "(stereo not given)", "Potency": "inconclusive [cytotoxic, partial curve]"},
      {"smiles": "COc1ccc(N2CCN(c3ccc4nnc(CCC(=O)Nc5ccc(C)cc5)n4n3)CC2)cc1", "Potency": "inactive"},
      {"smiles": "CCN(CC)C(=O)N1c2ccccc2Sc2ccccc21", "Potency": "inactive"},
      {"smiles": "COC(=O)c1ccc(NC(=O)c2ccccc2NS(=O)(=O)c2ccccc2)cc1", "Potency": "inconclusive [cytotoxic, single point]"}
    ]}
  ]
}
